Drawing on PubChem BioAssay AID488969 (Vanderbilt High Throughput Screening Facility, 2010), this text covers z-score for 72 compounds.

Over roughly 110,000 compounds, “z-score” has its median near -0.1; the highest 2% begin near 2. The list shows a part of the results.

This assay deals with Metabotropic glutamate receptor 8 (Rattus norvegicus) (UniProt P70579). The experiment in a line: mGluR8 Gi/Go-coupled signaling modulation – cell-based, rat, thallium flux, HTS, primary screen (AID 488969). To be noted: HEK293 rat mGluR8, GIRK (G protein-gated inwardly rectifying potassium channel) thallium flux, FluoZin2; at 10 µM; stronger effect = higher value; submaximal glutamate (EC20) added with thallium.
Chain of UniProt P70579 (P70579 whole entry, looked up): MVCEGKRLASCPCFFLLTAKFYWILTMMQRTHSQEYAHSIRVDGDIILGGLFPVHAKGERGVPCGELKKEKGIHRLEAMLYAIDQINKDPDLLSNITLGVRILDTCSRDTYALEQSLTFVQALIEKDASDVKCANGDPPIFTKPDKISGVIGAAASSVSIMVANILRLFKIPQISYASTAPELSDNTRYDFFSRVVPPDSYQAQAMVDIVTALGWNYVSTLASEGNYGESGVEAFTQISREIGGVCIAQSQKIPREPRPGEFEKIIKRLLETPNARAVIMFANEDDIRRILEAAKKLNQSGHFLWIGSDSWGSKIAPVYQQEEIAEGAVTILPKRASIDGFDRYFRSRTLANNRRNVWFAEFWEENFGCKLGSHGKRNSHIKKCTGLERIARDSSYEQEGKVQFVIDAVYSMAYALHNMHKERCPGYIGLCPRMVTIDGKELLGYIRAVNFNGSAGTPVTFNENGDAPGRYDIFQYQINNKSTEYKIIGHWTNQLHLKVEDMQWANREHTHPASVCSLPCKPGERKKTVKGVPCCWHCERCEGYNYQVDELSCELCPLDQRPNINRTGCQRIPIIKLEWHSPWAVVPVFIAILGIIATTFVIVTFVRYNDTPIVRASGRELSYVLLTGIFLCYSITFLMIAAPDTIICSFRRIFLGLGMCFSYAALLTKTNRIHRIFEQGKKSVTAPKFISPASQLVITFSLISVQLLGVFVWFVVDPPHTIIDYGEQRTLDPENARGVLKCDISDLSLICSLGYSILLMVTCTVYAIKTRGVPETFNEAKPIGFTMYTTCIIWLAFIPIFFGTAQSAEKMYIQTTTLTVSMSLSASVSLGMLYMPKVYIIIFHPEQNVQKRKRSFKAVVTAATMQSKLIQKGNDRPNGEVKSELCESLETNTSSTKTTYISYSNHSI
Compound `CC1Cc2ccccc2N1C(=O)CSc1ccccc1` (configuration not stated) came in with a z-score of -0.501.

`O=C(NC(NC(=S)Nc1c(Cl)cccc1Cl)C(Cl)(Cl)Cl)OCc1ccccc1` (configuration not stated) came in with a z-score of -0.771.

As for `c1ccc2c(N3CCCCC3)nc(N3CCCC3)nc2c1`, the z-score came out at 0.2.

`C=CCOc1ccc(CNn2cn[nH]c2=S)cc1OCC`: the z-score was -0.31.

Turning to `C=CCn1c(COc2ccc(Cl)cc2)nnc1SCC(=O)N1CC(=O)Nc2ccccc21`, the z-score is -0.735.

In the case of `O=[N+]([O-])c1cc(C(F)(F)F)ccc1NCCCCNS(=O)(=O)c1ccc2ccccc2c1`, the z-score is -0.124.

Compound `COc1ccc(S(=O)(=O)NCC(=O)N(CC(=O)NCC2CCCO2)c2ccccc2C)cc1` (configuration not stated) displayed a z-score of 0.0029.

As for `O=C(COc1ccc(S(=O)(=O)N2CCCCC2)cc1)NCc1ccncc1`, the z-score amounted to 0.404.

`Cc1ccccc1NC(=O)Cn1c(O)c(N=NC(=O)c2ccccc2O)c2ccccc21` gave a z-score of 0.394.

Compound `Clc1ccc(-c2nnsc2SCc2ccccc2)cc1` gave a z-score of -0.297.

The compound `Cn1cnnc1SCC(=O)c1ccc2c(c1)CCCC2` gave a z-score of -0.236.

`CCn1cc(C(=O)NC(C)C23CC4CC(CC(C4)C2)C3)cn1` (configuration not stated) registered a z-score of -0.0189.

The compound `Cc1cccc(C2Nc3ccccc3C(=O)N2c2ccccc2)n1` (configuration not stated) yielded a z-score of 0.027.

In turn, `COc1ccccc1CNC(=O)CCN1C(=O)COc2ccc(C)cc21` yielded a z-score of -0.114.

As to `CC1(C)CC(=O)C=C(Nc2ccccc2F)C1`, the z-score was found to be 0.217.

With `CCOC(=O)C1C(c2ccc(O)c(OCC)c2)NC(=S)NC1(O)C(F)(F)F` (configuration not stated), the z-score is -0.494.

In turn, `COc1ccc(Cc2nnnn2CC(=O)O)cc1` came in with a z-score of 0.0452.

As to `O=P(OCC1CC1)(c1ccccc1)c1ccccc1`, the z-score was -0.249.

Regarding `Cc1sc(NC(=O)c2ccco2)nc1-c1ccccc1`, the z-score is 0.0477.

Consider `O=[N+]([O-])c1cc(C(F)(F)F)cc([N+](=O)[O-])c1NN=C1CCCCC1`, for which the z-score worked out at 0.371.

On to `Cc1cc(C)c(NC(=O)COc2nc3ccccc3nc2C)c(C)c1`, for which the z-score was -0.157.

With `O=C(Nc1ccc(C2CC2(Cl)Cl)cc1)c1ccccc1Br` (configuration not stated), the z-score was -0.341.

As for `C=CCOn1c(=O)c(-c2ccc(OC)c(OC)c2)[n+]([O-])c2ccccc21`, the z-score is -0.224.

The compound `O=C(Nc1nccs1)c1ccc(S(=O)(=O)N2CCCCC2)cc1` showed a z-score of -0.0844.

Take `O=C(COc1ccccc1)Nc1nonc1NC(=O)COc1ccccc1`: the z-score is -0.222.

As to `CCOC(=O)C1=C(Cc2ccc(OC)cc2)C(=O)c2ccccc2C1=O`, the z-score was 0.55.

Regarding `Cc1nc(C(=O)N(C)C)nn1-c1cc(Cl)cc(Cl)c1`, the z-score was -0.0145.

The compound `COc1ccc(NCc2nnc(SCC(=O)c3ccc(OC)cc3)o2)cc1` came in with a z-score of -0.0938.

With `O=c1cc(-c2ccccc2F)nc(-c2ccccc2F)o1`, the z-score is -0.704.

On to `CCOc1cccc2c1OC1(C)CC2NC(=O)N1c1ccc(OC)cc1` (configuration not stated), for which the z-score turned out to be 0.492.

For `Cc1ccc2nc(-c3ccc(NS(=O)(=O)c4ccc(F)cc4)cc3)sc2c1`, the z-score is -0.296.

Turning to `COc1ccc(Br)cc1C1SCCN1S(C)(=O)=O` (configuration not stated), the z-score amounted to 0.00324.

In turn, `N#CC[n+]1cc(-c2ccc(Cl)cc2)n2c1CCC2` showed a z-score of -0.315.

`O=C(CCc1nc(-c2cccs2)no1)NCc1ccc(F)cc1Cl` displayed a z-score of -0.0321.

In turn, `CC(=O)Nc1cc(C(=O)OCC(=O)c2ccccc2)ccc1C` came in with a z-score of -0.309.

On to `CSc1nc(C)cc(C)c1C#N`, for which the z-score is 0.211.

`Cc1c(NC(=O)/C(C#N)=C/c2c(Oc3ccccc3)nc3ccccn3c2=O)c(=O)n(-c2ccccc2)n1C` returned a z-score of 1.16.

Compound `CC(C)c1ccc(-c2c(C#N)c(N)nc(SCC(=O)N3CCCCCC3)c2C#N)cc1` gave a z-score of -0.612.

As to `O=[N+]([O-])c1ccc(N2CCOCC2)cc1SCc1ccco1`, the z-score is -0.0137.

For `Cc1cc(C)c(NC(=O)CCCN2CCOCC2)c(C)c1`, the z-score is -0.0686.

Turning to `CN(C)c1nc(-c2ccccc2)c2cnn(Cc3ccccc3)c2n1`, the z-score was -0.028.

In turn, `C=CCn1c(SCC(=O)Nc2cccnc2Cl)nnc1-c1ccc(Cl)cc1` came in with a z-score of -1.15.

Compound `CCCCCc1nc2c(=O)n(C)c3ccccc3c2o1` gave a z-score of -1.57.

Consider `N=C1C(c2nc3ccccc3s2)=C(O)CN1Cc1ccco1`, for which the z-score is -0.323.

As to `Cc1ccc(S(=O)(=O)NCc2ccc3c(c2)cc(C)n3C)cc1`, the z-score turned out to be 0.206.

The compound `CCCC1(C(=O)OCC)NC(c2ccc(N(C)C)cc2)C2C(=O)N(c3ccc4c(c3)OCCO4)C(=O)C21` (configuration not stated) returned a z-score of 0.158.

Turning to `Cc1cc(C)cc(NC(=O)/C(C#N)=C/c2cn(CC(=O)NCc3ccco3)c3ccccc23)c1`, the z-score came out at 0.00755.

Take `Cc1cc(NC(=O)C(=O)NCCN2CCN(C(=O)c3cccs3)CC2)ccc1Br`: the z-score is -0.64.

As to `CCCCCCCCCS(=O)(=O)N/N=C/c1cccc([N+](=O)[O-])c1`, the z-score was -0.331.

Consider `CCSc1nnc(N(CCC#N)CCC#N)s1`, for which the z-score is -0.182.

`NC(=O)C1CCN(S(=O)(=O)c2cccc(C(=O)O)c2)CC1` came in with a z-score of -0.312.

Compound `Cc1cc(C2=NNC(=NC3CC3)SC2)c(C)n1-c1ccccc1F` displayed a z-score of -0.122.

The compound `COc1ccccc1NC(=O)C(=O)N1N=C(C(C)C)CC1(O)C(F)(F)F` (configuration not stated) showed a z-score of 0.117.

Take `CCOc1cc(CNCCc2ccccc2)ccc1OCC(=O)NC(C)(C)C`: the z-score was determined as 0.17.

In turn, `COc1ccc(NC(=S)Nc2ccccc2)cn1` showed a z-score of -0.179.

As for `COc1ccc(/C=C2\CCOC2=O)cc1`, the z-score was 0.296.

As to `Cc1ccc(S(=O)(=O)NN2C(=O)c3ccccc3NC2(C)C)cc1`, the z-score is -0.0651.

In turn, `CNC(=O)C(=O)NCC1OCCN1S(=O)(=O)c1ccc([N+](=O)[O-])cc1` (configuration not stated) returned a z-score of -0.156.

Compound `COc1ccccc1N1CCN(C(CNC(=O)c2ccc3c(c2)OCO3)c2cccnc2)CC1` (configuration not stated) had a z-score of 0.0309.

Consider `Cc1ccc(C)c(OCCCC(=O)Nc2nccs2)c1`, for which the z-score was -0.0356.

The compound `COc1ccc(C(CC(=O)c2ccccc2)S(=O)(=O)c2ccccc2)cc1` (configuration not stated) gave a z-score of -0.439.

On to `Cc1cc(OCc2ccc(F)cc2)nc(-c2ccccc2O)n1`, for which the z-score amounted to 0.498.

`COc1ccc(/C=C2\SC(=O)N(CC(=O)NNC(=O)c3ccccc3O)C2=O)cc1OC` returned a z-score of -0.594.

On to `CC(=O)c1cccc(NC(=O)N2CCN(S(C)(=O)=O)CC2)c1`, for which the z-score stood at 0.391.

Consider `CCC(C)Oc1cccc(C(=O)Nc2ccccc2N2CCOCC2)c1` (configuration not stated), for which the z-score was -0.605.

`CC(=O)OC(C)(C)C#CCN1CCCC1` came in with a z-score of -0.000695.

The compound `COc1ccc(/C=N/OCC(=O)Nc2nc3ccccc3s2)cc1` yielded a z-score of -0.132.

`O=C(N/N=C/C=C/c1ccccc1)c1ccc(Br)cc1` showed a z-score of 0.2.

With `Cc1cc(Cl)ccc1NC(=S)N1CCC(C(N)=O)(N2CCCCC2)CC1`, the z-score is -0.126.

Regarding `COc1cccc(C2(O)CCN(C(=O)Cc3cccnc3)CC2)c1`, the z-score came out at 0.759.

With `Nc1ccccc1C(=O)NCc1ccccc1`, the z-score is 0.0156.

`Cc1cc(C)nc(SCC(=O)Nc2nc(-c3ccccc3)c(-c3ccccc3)o2)n1` showed a z-score of -0.522.
